In PubChem BioAssay AID1963576 (National Center for Advancing Translational Sciences (NCATS), 2024):
The campaign covered roughly 46,000 compounds. About 60 (0.1%) were called active. Inconclusive results (about 3%) are left out. Calls follow the shape of the dose curve; as a rule, active = well fitted inhibition curve with a large enough effect; inconclusive = small, poorly fitted or top-dose-only effect; inactive = no such curve, though single readings can be large or run the other way. The list shows a part of the results.

Assay: Primary qHTS assay for Inhibitors of ovarian cancer metastasis using an organotypic tumor microenvironment (TME) model. Also: nearly all actives have a fitted effect of over 65% in size.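 As to activity change, negative = inhibition: plate controls were DMSO wells for no effect and tomatine positive control wells for full effect.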
Conditions: SKOV3ip1-GFP adhesion/invasion on 3D omental model, fluorescence; series mostly up to 45.8 µM; activity change, negative = inhibition: at the top concentration
Outline: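 Primary human omental fibroblast/mesothelial 3D culture pre-formed 48 h. SKOV3ip1-GFP cells added with compounds (0.36-46 umol/L), incubated 2 h RT/16 h 37 C, fixed; GFP cells quantified at 488/509 nm.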

Activity change, negative = inhibition, inactive:
CCc1ccc(-n2nc(CO)c(C(=O)NCCOC)n2)cc1 -2.57%, O=C(Cn1ncc2c(Cl)cccc21)NCc1cccc(Cl)c1 6.76%, COc1ccc(OC)c(CNC(=O)Nc2cn(CC(C)C)c(=O)c3ccccc23)c1 11.4%, CCn1cc(S(=O)(=O)c2cc(C)cc(C)c2)c(=O)c2cc(F)c(N3CCCCC3)cc21 8.08%, CC(C)(C)C1CCc2c(sc(NC(=O)C3c4ccccc4Oc4ccccc43)c2C(N)=O)C1 (stereo not drawn) -3.26%, Cc1cccc(NC(=O)Cn2c(=O)n(Cc3ccc4c(c3)OCO4)c(=O)c3oc4ccccc4c32)c1C 2.12%, CCCCn1c(CNC(=O)C23CC4CC(CC(C4)C2)C3)nnc1SCC(=O)Nc1ccc(C)cc1 6.72%, O=C(Nc1ccc(S(=O)(=O)N2CCC(c3nc4ccccc4s3)CC2)cc1)c1ccccc1 -5.87%, CC(=O)N1CCc2cc(Br)cc(S(=O)(=O)N3CCC(C(=O)Nc4cccc(C)c4C)CC3)c21 10.2%, Cc1ccc(CNC(=O)Nc2cc(C(=O)NCc3cccc(F)c3)ccc2N2CCCC2)cc1 -13.5%, Cc1ccc(C2CC(=O)Nc3cc4c(cc32)OCCO4)cc1Br (stereo not drawn) 9.19%, CCn1c(=O)c2c(nc3n2CCN3c2ccc(OC)cc2)n(C)c1=O -6.1%, Cc1ccc(-c2noc(CCC(=O)N(C)c3ccccc3F)n2)cc1 4.61%, COCCNC(=O)Cn1ccc2cc(S(=O)(=O)N3CCCCCC3)ccc21 -8.3%, Fc1ccccc1-c1nc(N2CCN(c3cccc(Cl)c3)CC2)c2ccccc2n1 -4.69%, CCOc1ccc(CCNC(=O)c2cc(=O)[nH]c3ccc(S(=O)(=O)N4CCCCC4C)cc23)cc1OCC (stereo not drawn) -4.16%, CCOC(=O)c1c(C)n(-c2ccc(OC)cc2)c2ccc(OC(=O)COc3ccccc3)cc12 -3.17%, COc1ccc(CNC(=O)CCc2c(C)nc3c(c(C)nn3-c3ccccc3)c2C)cc1 5.82%, CCN(Cc1ccccc1)C(=O)C1CCN(S(=O)(=O)c2ccc3c(c2)CCCN3C(C)=O)CC1 -8.54%, CC(C)c1nnc(N2C(=O)c3oc4ccccc4c(=O)c3C2c2ccccc2F)s1 (stereo not drawn) 2.27%, COc1cc(NC(=O)C2=CC(c3ccc(F)cc3)=NS(=O)(=O)N2C)cc(OC)c1OC 17.1%, CCc1ccc(CNC(=O)CCc2c(C)nn(-c3ccc(N4CCCC4)nn3)c2C)cc1 6.16%, c1ccc([C@H]2CN3CCSC3=N2)cc1 -11.2%, Cc1coc2c(C)c3oc(=O)c(CCC(=O)NCCc4ccccc4F)c(C)c3cc12 -9.63%, CC(C)N(C(=O)CSc1cn(CC(=O)N2CCCCCC2)c2ccccc12)C(C)C -3.31%, COc1ccc(-n2nc(C(=O)N3CCCCC3C)c3c4ccccc4n(C)c3c2=O)cc1Cl (stereo not drawn) -1.35%, O=C(Cn1ncc2c3ccccc3n(Cc3ccccc3F)c2c1=O)NCc1ccccc1Cl -5.34%, Cc1cccc(CC(=O)N2CC(=O)Nc3ccc(Br)cc3C2c2ccc(F)cc2)c1 (stereo not drawn) -9.68%, COc1ccc(NC(=O)Cn2c(=O)n(CCC(=O)NCC3CCCO3)c(=O)c3cc(OC)c(OC)cc32)cc1 (stereo not drawn) -17.7%, CN(Cc1ccccc1)C(=O)c1ccc(CSc2nc3cccnc3n2Cc2ccccc2F)cc1 -9.08%, COc1ccc(Br)cc1S(=O)(=O)Nc1cc(-c2cn3ccccc3n2)ccc1C -0.171%, COc1cccc(/C=C/c2nc(C#N)c(N3CCC(C(N)=O)CC3)o2)c1 -0.75%, O=C1C[C@@H](c2ccc(O)cc2)Oc2cc(O)cc(O)c21 -16.7%, CCOc1cc(C2NC(=O)c3c(sc4c3CCN(C)C4)N2)ccc1OC(=O)c1ccc(Br)cc1 (stereo not drawn) 18.9%, CCC(=O)O[C@]1(C(=O)CCl)[C@@H](C)C[C@H]2[C@@H]3CCC4=CC(=O)C=C[C@]4(C)[C@@]3(F)[C@@H](O)C[C@@]21C -1.01%, CCc1ccc(-n2nc(C)c3c(C(=O)N4CCN(c5ccccc5)CC4)cc(C)nc32)cc1 1.48%, CCC(=O)N1CCCc2cc(S(=O)(=O)N3CCC(C(=O)NCc4ccc(F)cc4)CC3)ccc21 5.71%, COc1ccc(C)cc1NC(=O)c1cc2c(=O)n3cccc(C)c3nc2s1 4.52%, CCOc1ccc(NC(=O)Cn2cnc3sc(C)c(S(=O)(=O)N4CCN(c5ccccc5OC)CC4)c3c2=O)cc1 0.0812%, COc1ccc(NC(=O)c2ccco2)cc1NC(=O)C(C)(C)Oc1ccc(Cl)cc1 0.634%, Cc1nn2c(C)c(C(=O)NC(C)c3ccccc3)cnc2c1-c1ccc(F)cc1 (stereo not drawn) 19.1%, O=C(Nc1ccc(F)cc1)c1ccc2c(=O)n3c(nc2c1)CCCCC3 8.57%, COc1ccc(OC)c(C2CC(=O)Oc3c2c(=O)n(C)c2ccccc32)c1 (stereo not drawn) -6.2%, O=C(NCC(c1cccs1)S(=O)(=O)c1ccccc1)c1ccc(C(F)(F)F)cc1 (stereo not drawn) -16.3%, Cc1cccc(N(CC(=O)Nc2ccccc2C(F)(F)F)S(=O)(=O)c2ccccc2)c1C -2.83%, Cc1cc(Cl)ccc1OCC(=O)N(Cc1ccco1)Cc1ccccc1F -6.08%, COc1ccccc1C(=O)NC1(C(F)(F)F)C(=O)Nc2c1c(=O)[nH]c(=O)n2-c1ccc(F)cc1 (stereo not drawn) 7.57%, CCOc1ccccc1NC(=O)CCc1c(C)nn(-c2ccc(N3CCCCC3)nn2)c1C -14.3%, Cc1cccc(Cn2c(-c3cccc(Br)c3)nc3ccccc32)c1 3.32%, CN(C)CCNC(=O)Cn1ccc2cc(S(=O)(=O)N3CCCCCC3)ccc21 -15.7%, COCCCNC(=O)CSc1nc2c(sc3ccccc32)c(=O)n1CCc1ccc(OC)c(OC)c1 32.2%, CCc1ccccc1NC(=O)Cn1nc(CC)n2c(cc3sccc32)c1=O 12.1%, CCc1ccccc1N1C(=O)CN(S(=O)(=O)CC)CC1(C)C(=O)NC1CCCCC1 (stereo not drawn) -3.38%, NC(=O)c1c(OCc2c(F)cc(Br)cc2F)nsc1NC(=O)NCCCCN1CCCC1 5.21%, CCC(=O)OC1=C(C(C)=O)N(Cc2ccccc2)S(=O)(=O)c2ccccc21 3.86%, COc1ccc(NC(=O)C2CCCN(c3ncnc4onc(C)c34)C2)cc1OC (stereo not drawn) -10.8%, CCC(=O)N1CCc2cc(CNC(=O)c3cccc(N(C)C)c3)ccc21 9.51%, COc1ccc(C(=O)NCc2ccc3c(c2)CCN3C(C)=O)c(OC)c1 -11.4%, Cc1ccccc1NC(=O)C1CCN(S(=O)(=O)c2c(C)noc2/C=C/c2ccco2)CC1 -8.48%, COc1ccc(-c2cc(C(=O)N3CCCCC3C)no2)cc1OC (stereo not drawn) -12.2%, Cc1ccc(-c2c3c(=O)n(C)c(=O)n(C)c3c3n2-c2ccccc2NC3c2ccc(C)cc2O)cc1 (stereo not drawn) 2.82%, CN(C(=O)CSc1nc(-c2ccccc2)no1)c1ccc(F)cc1 9.11%, COc1ccc(C(=O)c2sc3nc4c(c(C(F)(F)F)c3c2N)CN(C(C)=O)CC4)cc1OC -1.55%, CCOc1ccccc1C1C(C(=O)Nc2ccccc2)=C(C)Nc2nc(SCC(=O)c3ccc(C)cc3)nn21 (stereo not drawn) -28.2%, Cc1ccc(Cl)cc1N1CCN(S(=O)(=O)c2cn(C)c(C)n2)CC1 -5.38%, O=C(COc1ccccc1)Nc1nnc(S(=O)(=O)Nc2ccccc2)s1 -18.7%, CCN(Cc1ccccc1)c1ncnc2c1cnn2-c1ccc(F)cc1 1.1%, O=C(c1ccc(Cl)cc1)N1CCN(CCc2ccncc2)CC1 3.51%, CCOc1ccccc1NC(=O)Nc1nnc(N2CCCC(C)C2)s1 (stereo not drawn) 5.11%, Cc1cccc(NC(=O)Cn2c(=O)n(CCCCCC(=O)NCc3ccccc3)c(=O)c3sccc32)c1 -28.1%

outcome, inactive:
CCC(=O)N1c2ccc(S(=O)(=O)CCC(=O)NCc3ccccc3OC)cc2CC1C (stereo not drawn), CCOc1ccc(NC(=O)Cn2c(=O)n(Cc3ccc4c(c3)OCO4)c(=O)c3ccc(C(=O)NC4CCCCC4)cc32)cc1, Cc1ccc(CNS(=O)(=O)c2ccc(C(=O)N(C)C)s2)cc1, Cc1ccc(CN(C(=O)COc2ccccc2Cl)c2ccccn2)o1, CC1CCCCN1Cc1c(O)ccc2c(=O)c(-c3ccccc3Cl)c(C(F)(F)F)oc12 (stereo not drawn), COCCSc1nc2c([nH]c3ccccc32)c(=O)n1-c1ccc(OC)c(OC)c1, COC(=O)c1nnn(CC(=O)NC(=O)Nc2ccc(F)cc2)c1C(=O)OC, O=C(Cn1nnnc1-c1ccccc1F)Nc1ccc(OC(F)(F)F)cc1, O=C(CSc1nccn1Cc1ccc(F)cc1)Nc1nc2ccccc2s1, COc1cccc(C(=O)Nc2ccccc2C(=O)OCc2cc(=O)n3c4c(sc3n2)CCCC4)c1, COc1ccc(CNC(=O)CN(C)S(=O)(=O)c2ccc3nc(C)sc3c2)cc1, CCOC(=O)c1ccc(NC(=O)Cn2c(=O)cc(C)c3c(C)nn(-c4ccc(CC)cc4)c32)cc1, N#Cc1ccc(-c2cccs2)nc1SCc1ccc(Br)cc1, Cc1cc2c(cc1S(=O)(=O)Nc1cccc(C#N)c1)OCC(=O)N2, COc1ccccc1Nc1sc(C(=O)c2ccc(F)cc2)c(N)c1S(=O)(=O)c1ccc(C)cc1, COc1ccc(-c2noc(-c3ccc(N4CCCC4)c([N+](=O)[O-])c3)n2)cc1OC, Cc1cccc(C)c1-n1ncc(C(=O)O)c1C1CCN(C(=O)OC(C)(C)C)CC1, COc1ccc(Cl)cc1NC(=O)c1cn(C2CCCC2)c(=O)c2c1c1ccccc1n2C, COc1ccc(CNC(=O)CSc2ncc3c(n2)-c2ccc(Cl)cc2N(Cc2ccccc2)S3(=O)=O)cc1, Cc1ccc(Cn2c(SCc3ccc(C(=O)N4CCCCC4)cc3)nc3ccncc32)cc1, CC1CCCCN1CCCNC(=O)CN1C(=O)c2cccnc2Oc2ccc(Cl)cc21 (stereo not drawn), Cc1ccc(-c2nnc(Nc3cccc(Cl)c3)c3ccccc23)cc1S(=O)(=O)N1CCN(C)CC1, CCOc1ccc(Nc2cc(C(=O)NCc3ccccc3Cl)c3ccccc3n2)cc1
